# These are yes or no findings as the source states them, for the method shown. Binding seen in cells or lysates may run through a third protein. Some results given as binding are weak or reduced against the parent protein; the word gives no strength. Tags and fused reporters may be left off the sequences shown.
# T1: BSL2-GFP (Arabidopsis thaliana) (UniProt Q9SJF0)
# T1 sequence: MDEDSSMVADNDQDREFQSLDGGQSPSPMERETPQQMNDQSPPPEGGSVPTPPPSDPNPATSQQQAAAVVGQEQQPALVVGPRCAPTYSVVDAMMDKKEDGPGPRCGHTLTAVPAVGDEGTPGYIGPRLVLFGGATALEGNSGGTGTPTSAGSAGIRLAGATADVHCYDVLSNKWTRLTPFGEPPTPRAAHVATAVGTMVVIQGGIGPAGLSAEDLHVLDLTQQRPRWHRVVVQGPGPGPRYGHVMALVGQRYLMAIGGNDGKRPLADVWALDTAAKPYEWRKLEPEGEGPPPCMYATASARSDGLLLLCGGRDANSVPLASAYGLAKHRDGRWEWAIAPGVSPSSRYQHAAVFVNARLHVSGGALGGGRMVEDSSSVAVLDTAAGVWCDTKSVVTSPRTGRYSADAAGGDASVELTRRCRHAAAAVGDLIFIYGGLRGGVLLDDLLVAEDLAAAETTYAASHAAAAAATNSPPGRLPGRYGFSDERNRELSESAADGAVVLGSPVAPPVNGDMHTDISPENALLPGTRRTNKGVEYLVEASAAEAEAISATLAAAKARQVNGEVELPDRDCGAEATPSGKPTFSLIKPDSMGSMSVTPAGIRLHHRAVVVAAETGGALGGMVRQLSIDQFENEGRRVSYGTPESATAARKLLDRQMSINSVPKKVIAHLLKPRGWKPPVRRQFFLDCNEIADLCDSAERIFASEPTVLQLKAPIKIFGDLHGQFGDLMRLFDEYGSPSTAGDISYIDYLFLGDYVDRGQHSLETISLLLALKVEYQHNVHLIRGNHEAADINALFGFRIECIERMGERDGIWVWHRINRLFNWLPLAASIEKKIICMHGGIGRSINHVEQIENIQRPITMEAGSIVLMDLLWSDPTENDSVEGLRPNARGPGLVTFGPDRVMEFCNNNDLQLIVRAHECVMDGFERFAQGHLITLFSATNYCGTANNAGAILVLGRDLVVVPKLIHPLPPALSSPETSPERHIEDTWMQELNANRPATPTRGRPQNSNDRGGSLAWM
# T2: BSL3-GFP (Arabidopsis thaliana) (UniProt Q9SHS7)
# T2 sequence: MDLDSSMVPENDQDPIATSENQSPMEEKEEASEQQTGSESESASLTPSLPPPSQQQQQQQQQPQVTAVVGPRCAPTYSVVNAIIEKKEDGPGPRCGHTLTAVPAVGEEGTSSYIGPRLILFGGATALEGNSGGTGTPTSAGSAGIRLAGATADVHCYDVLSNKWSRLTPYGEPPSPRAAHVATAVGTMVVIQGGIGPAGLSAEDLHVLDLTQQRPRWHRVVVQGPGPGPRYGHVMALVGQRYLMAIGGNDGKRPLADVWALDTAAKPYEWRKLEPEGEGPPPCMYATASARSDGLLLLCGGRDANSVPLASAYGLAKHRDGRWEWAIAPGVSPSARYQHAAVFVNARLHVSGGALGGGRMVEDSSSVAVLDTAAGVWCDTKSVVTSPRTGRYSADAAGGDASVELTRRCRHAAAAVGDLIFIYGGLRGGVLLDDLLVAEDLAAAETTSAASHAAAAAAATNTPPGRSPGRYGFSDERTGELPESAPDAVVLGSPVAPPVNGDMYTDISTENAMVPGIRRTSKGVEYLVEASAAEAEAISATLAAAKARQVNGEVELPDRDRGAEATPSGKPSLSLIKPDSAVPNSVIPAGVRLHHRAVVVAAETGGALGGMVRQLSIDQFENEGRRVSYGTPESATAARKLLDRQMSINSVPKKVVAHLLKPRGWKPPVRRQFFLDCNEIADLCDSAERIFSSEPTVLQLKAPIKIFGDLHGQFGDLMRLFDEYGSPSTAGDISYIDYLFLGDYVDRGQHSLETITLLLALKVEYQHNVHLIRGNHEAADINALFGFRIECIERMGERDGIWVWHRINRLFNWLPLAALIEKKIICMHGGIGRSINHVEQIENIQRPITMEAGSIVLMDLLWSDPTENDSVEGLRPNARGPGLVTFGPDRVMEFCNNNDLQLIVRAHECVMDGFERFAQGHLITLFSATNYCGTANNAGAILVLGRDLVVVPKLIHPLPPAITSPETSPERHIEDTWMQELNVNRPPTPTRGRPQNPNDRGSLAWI
# T3: BSL1-GFP (Arabidopsis thaliana) (UniProt Q8L7U5)
# T3 sequence: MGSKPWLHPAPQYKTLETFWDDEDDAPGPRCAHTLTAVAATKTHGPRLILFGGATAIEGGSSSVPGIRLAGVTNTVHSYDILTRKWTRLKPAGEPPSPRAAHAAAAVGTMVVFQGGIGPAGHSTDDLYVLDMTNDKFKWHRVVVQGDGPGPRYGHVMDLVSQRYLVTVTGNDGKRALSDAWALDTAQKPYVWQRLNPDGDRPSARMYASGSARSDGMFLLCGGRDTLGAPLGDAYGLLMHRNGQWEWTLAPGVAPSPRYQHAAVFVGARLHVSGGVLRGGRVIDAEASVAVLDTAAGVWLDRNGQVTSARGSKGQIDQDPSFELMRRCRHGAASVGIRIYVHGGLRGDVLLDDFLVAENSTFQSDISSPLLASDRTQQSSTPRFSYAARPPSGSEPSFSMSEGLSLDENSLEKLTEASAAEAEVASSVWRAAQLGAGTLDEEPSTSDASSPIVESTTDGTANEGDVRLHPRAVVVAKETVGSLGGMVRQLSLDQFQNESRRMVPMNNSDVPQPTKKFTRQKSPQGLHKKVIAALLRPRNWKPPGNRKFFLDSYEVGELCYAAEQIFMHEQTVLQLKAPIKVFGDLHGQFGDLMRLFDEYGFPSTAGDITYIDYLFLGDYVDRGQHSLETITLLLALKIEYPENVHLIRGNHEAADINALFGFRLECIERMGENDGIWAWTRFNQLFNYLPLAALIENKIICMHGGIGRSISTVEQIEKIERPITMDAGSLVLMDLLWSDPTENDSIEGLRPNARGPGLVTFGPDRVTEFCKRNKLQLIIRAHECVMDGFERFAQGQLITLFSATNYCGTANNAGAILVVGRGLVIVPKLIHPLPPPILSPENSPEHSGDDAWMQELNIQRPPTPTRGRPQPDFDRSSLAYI
# T4: BSL1-FLAG (Arabidopsis thaliana) (UniProt Q8L7U5)
# T4 sequence: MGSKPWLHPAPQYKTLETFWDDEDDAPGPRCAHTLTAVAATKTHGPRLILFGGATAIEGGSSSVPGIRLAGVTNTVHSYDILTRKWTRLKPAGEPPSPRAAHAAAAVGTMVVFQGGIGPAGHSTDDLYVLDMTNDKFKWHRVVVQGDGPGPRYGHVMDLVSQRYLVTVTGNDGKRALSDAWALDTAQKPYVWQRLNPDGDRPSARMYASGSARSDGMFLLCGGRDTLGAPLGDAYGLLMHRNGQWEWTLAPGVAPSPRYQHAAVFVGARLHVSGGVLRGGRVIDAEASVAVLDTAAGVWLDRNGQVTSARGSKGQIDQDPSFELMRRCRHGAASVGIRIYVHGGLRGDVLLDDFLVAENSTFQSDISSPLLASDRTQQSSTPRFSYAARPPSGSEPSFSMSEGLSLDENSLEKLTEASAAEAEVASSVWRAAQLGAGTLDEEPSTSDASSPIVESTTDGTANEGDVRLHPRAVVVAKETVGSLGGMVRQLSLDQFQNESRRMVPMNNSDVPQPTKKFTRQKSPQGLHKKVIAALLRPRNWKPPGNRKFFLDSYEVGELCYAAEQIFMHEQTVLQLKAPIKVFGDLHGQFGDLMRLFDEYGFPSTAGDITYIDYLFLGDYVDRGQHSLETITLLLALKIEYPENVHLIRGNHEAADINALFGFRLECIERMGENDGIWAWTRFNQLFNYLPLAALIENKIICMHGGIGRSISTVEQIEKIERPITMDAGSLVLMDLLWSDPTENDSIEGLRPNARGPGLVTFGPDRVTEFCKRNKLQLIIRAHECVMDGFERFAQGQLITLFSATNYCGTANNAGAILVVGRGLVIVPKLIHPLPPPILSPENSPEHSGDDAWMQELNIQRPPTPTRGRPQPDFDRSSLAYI
# Experiments:
# [1] = target: T1, BSL2-GFP (Arabidopsis thaliana); assay: co-IP; PXL1-FLAG and BSL1/2/3-GFP co-expressed in Nicotiana benthamiana; total protein immunoprecipitated with anti-GFP beads; blots with anti-FLAG and anti-GFP
# [2] = target: T2, BSL3-GFP (Arabidopsis thaliana); assay: as above
# [3] = target: T3, BSL1-GFP (Arabidopsis thaliana); assay: as above
# [4] = target: T4, BSL1-FLAG (Arabidopsis thaliana); assay: co-IP; PXL1-MYC and BSL1-FLAG co-expressed in Nicotiana benthamiana with or without CLE19 peptide treatment; extract incubated with anti-FLAG beads at 4°C for 3 h; blots with anti-MYC and anti-FLAG
Binder,binding [1],binding [2],binding [3],binding [4]
"PXL1-FLAG expressed in Nicotiana benthamiana (receptor, UniProt Q9FRS6 24-1029) ETFQNSEQEILLAFKSDLFDPSNNLQDWKRPENATTFSELVHCHWTGVHCDANGYVAKLLLSNMNLSGNVSDQIQSFPSLQALDLSNNAFESSLPKSLSNLTSLKVIDVSVNSFFGTFPYGLGMATGLTHVNASSNNFSGFLPEDLGNATTLEVLDFRGGYFEGSVPSSFKNLKNLKFLGLSGNNFGGKVPKVIGELSSLETIILGYNGFMGEIPEEFGKLTRLQYLDLAVGNLTGQIPSSLGQLKQLTTVYLYQNRLTGKLPRELGGMTSLVFLDLSDNQITGEIPMEVGELKNLQLLNLMRNQLTGIIPSKIAELPNLEVLELWQNSLMGSLPVHLGKNSPLKWLDVSSNKLSGDIPSGLCYSRNLTKLILFNNSFSGQIPEEIFSCPTLVRVRIQKNHISGSIPAGSGDLPMLQHLELAKNNLTGKIPDDIALSTSLSFIDISFNHLSSLSSSIFSSPNLQTFIASHNNFAGKIPNQIQDRPSLSVLDLSFNHFSGGIPERIASFEKLVSLNLKSNQLVGEIPKALAGMHMLAVLDLSNNSLTGNIPADLGASPTLEMLNVSFNKLDGPIPSNMLFAAIDPKDLVGNNGLCGGVLPPCSKSLALSAKGRNPGRIHVNHAVFGFIVGTSVIVAMGMMFLAGRWIYTRWDLYSNFAREYIFCKKPREEWPWRLVAFQRLCFTAGDILSHIKESNIIGMGAIGIVYKAEVMRRPLLTVAVKKLWRSPSPQNDIEDHHQEEDEEDDILREVNLLGGLRHRNIVKILGYVHNEREVMMVYEYMPNGNLGTALHSKDEKFLLRDWLSRYNVAVGVVQGLNYLHNDCYPPIIHRDIKSNNILLDSNLEARIADFGLAKMMLHKNETVSMVAGSYGYIAPEYGYTLKIDEKSDIYSLGVVLLELVTGKMPIDPSFEDSIDVVEWIRRKVKKNESLEEVIDASIAGDCKHVIEEMLLALRIALLCTAKLPKDRPSIRDVITMLAEAKPRRKSVCQVAGDLPIFRNSPVVGLI",binds,binds,binds,
"PXL1-MYC (receptor, UniProt Q9FRS6 24-1029) ETFQNSEQEILLAFKSDLFDPSNNLQDWKRPENATTFSELVHCHWTGVHCDANGYVAKLLLSNMNLSGNVSDQIQSFPSLQALDLSNNAFESSLPKSLSNLTSLKVIDVSVNSFFGTFPYGLGMATGLTHVNASSNNFSGFLPEDLGNATTLEVLDFRGGYFEGSVPSSFKNLKNLKFLGLSGNNFGGKVPKVIGELSSLETIILGYNGFMGEIPEEFGKLTRLQYLDLAVGNLTGQIPSSLGQLKQLTTVYLYQNRLTGKLPRELGGMTSLVFLDLSDNQITGEIPMEVGELKNLQLLNLMRNQLTGIIPSKIAELPNLEVLELWQNSLMGSLPVHLGKNSPLKWLDVSSNKLSGDIPSGLCYSRNLTKLILFNNSFSGQIPEEIFSCPTLVRVRIQKNHISGSIPAGSGDLPMLQHLELAKNNLTGKIPDDIALSTSLSFIDISFNHLSSLSSSIFSSPNLQTFIASHNNFAGKIPNQIQDRPSLSVLDLSFNHFSGGIPERIASFEKLVSLNLKSNQLVGEIPKALAGMHMLAVLDLSNNSLTGNIPADLGASPTLEMLNVSFNKLDGPIPSNMLFAAIDPKDLVGNNGLCGGVLPPCSKSLALSAKGRNPGRIHVNHAVFGFIVGTSVIVAMGMMFLAGRWIYTRWDLYSNFAREYIFCKKPREEWPWRLVAFQRLCFTAGDILSHIKESNIIGMGAIGIVYKAEVMRRPLLTVAVKKLWRSPSPQNDIEDHHQEEDEEDDILREVNLLGGLRHRNIVKILGYVHNEREVMMVYEYMPNGNLGTALHSKDEKFLLRDWLSRYNVAVGVVQGLNYLHNDCYPPIIHRDIKSNNILLDSNLEARIADFGLAKMMLHKNETVSMVAGSYGYIAPEYGYTLKIDEKSDIYSLGVVLLELVTGKMPIDPSFEDSIDVVEWIRRKVKKNESLEEVIDASIAGDCKHVIEEMLLALRIALLCTAKLPKDRPSIRDVITMLAEAKPRRKSVCQVAGDLPIFRNSPVVGLI",,,,binds

# — paper PMC12678687
